According to PubChem BioAssay AID686978 (National Center for Advancing Translational Sciences (NCATS), 2013):
In all, about 420,000 compounds went through this assay and about 64,000 (15%) were called active. Inconclusive results, whose numbers are uncertain, are shown with a selection of clear calls. The call rests on the fitted dose curve; in most records, active means well fitted inhibition curve with a large enough effect; inconclusive means small, poorly fitted or top-dose-only effect; inactive means flat fitted curve, though single readings scatter. Potencies of inconclusive entries are left out as doubtful fits.

Assay: qHTS for Inhibitors of human tyrosyl-DNA phosphodiesterase 1 (TDP1): qHTS in cells in absence of CPT; further: nearly all actives have a fitted effect of over 55% in size
Conditions: DT40 Tdp1-/- hTDP1 cells, no CPT, ATP luminescence, 48 h; activity change, negative = growth inhibition: at 46.2 µM (top of the series) unless noted
Method in brief: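 Readout: luminescence from CellTiter-Glo after 30 min in the dark at RT. Cells: DT40 Tdp1-/- with stable hTDP1, 400/well. Exposure: compounds alone, ≥48 hr, 37 °C.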
On the % scale 0 is the no-effect control and ±100 the full control effect; potency means the concentration at half of the fitted maximal effect; tags describe the fitted curve by direction and shape.

| SMILES | Potency | activity change, negative = growth inhibition |
| --- | --- | --- |
| COc1ccc(-c2ccc(S(=O)(=O)NCC3CCCO3)cc2)cc1 (stereo not drawn) | inconclusive [inhibitor, single point] | – |
| C=C(C)CSc1nnc([C@@H](NC(=O)OC(C)(C)C)C(C)CC)o1 (stereo partly drawn) | inconclusive [inhibitor, partial curve, poor fit] | – |
| CC(C)CNC(=O)c1c(-c2ccccc2)c(-c2ccccc2)nn(C)c1=O | inconclusive [inhibitor, single point] | – |
| c1ccc(-c2cn3nc4c(nc3n2)CCCC4)cc1 | inconclusive [inhibitor, partial curve] | – |
| CC(C)(C)S(=O)(=O)N1C[C@H]2CC/C=C\C/C=C\2[C@@H]1CCO | active: 13 µM | – |
| COc1ccc(/C=N/NC(=O)c2ccn[nH]2)cc1COc1ccc(F)cc1 | inconclusive [inhibitor, single point] | – |
| c1ccc2c(c1)ncn2-c1ccc(-c2ccnc3ncnn23)cc1 | inconclusive [inhibitor, partial curve, poor fit] | – |
| COc1ccc(CCNC(=O)C(=O)NCC2OCCN2S(=O)(=O)c2ccc(OC)c(OC)c2)cc1 (stereo not drawn) | inconclusive [inhibitor, single point] | – |
| O=C1Nc2ccccc2C1=Nc1ccc2[nH]c3ccccc3c2c1 | – | inactive: -4.9% |
| CC(=O)N1CCC2(CCCN(c3cccc(-c4ccccc4)c3)C2)CC1 | inconclusive [inhibitor, single point] | – |
| Cc1ccc(S(=O)(=O)NC2CCCCC2)c2nsnc12 | inconclusive [inhibitor, single point] | – |
| Cc1[nH]c(C)c(S(=O)(=O)Nc2ccc(F)cc2Cl)c1C(=O)N1CCCC1 | inconclusive [inhibitor, single point] | – |
| O=C(Nc1ccc(S(=O)(=O)Nc2cnc3ccccc3n2)cc1)c1ccc(F)cc1 | inconclusive [inhibitor, single point] | – |
| CCC(Oc1cc(Cl)ccc1Cl)C(=O)NN1C(=O)C2C3CCC(C3=C(C)C)C2C1=O (stereo not drawn) | inconclusive [inhibitor, single point] | – |
| Nc1nc2c(F)cccc2s1 | – | inactive: 1.87% |
| COc1ccccc1CNC(=O)C1CCN(Cc2cc3ccccc3n2Cc2cccc(C)c2)CC1 | active: 18.4 µM | – |
| O=C(NCc1ccccc1Cl)c1ccc(NC(=O)c2nsc3ccccc23)cc1 | active: 18.4 µM | – |
| Cc1ccccc1Cn1c(=O)n(CCCCC(=O)NCc2ccccc2Cl)c(=O)c2ccccc21 | inconclusive [inhibitor, partial curve] | – |
